# Some of the results follow.
# B1: PX14343B-bfa-546-20-546 (Bacteroides fragilis) (protein)
# chain: CDLERYPLTDLSEETFWNSESNAELALTSLYRGSLTDGVEYNPSDWWSYHGMIMMEHLSDNAFDRRGENNPFFKISSGNLTADNAFIKRYWETSYKRIGYCNRFLVGIQNSSESEKKTRMIAEARFLRATQYFYLASYFKNVPLVENVLTGEEANNVTKTSQADILKWCVTEFTAAAADLPRFSAIPAGEAGRACKQAALAFLGRTCMLQKDWKSGAKAFHDIMELGDNAINANYQELFYPSTGTSNKENIFYIQYLENYLGTGLPQHALSAKDGGWSLVNPAADLYESYEFKDGTPFSYDDPRYDPSNLGKDRDPRLDYTIYYNGAIFMGTEYKMSPDYSAAKKEKLDYTSEASRTGFMMRKYFEESTPINDVQSANGLTPVIRYAEVLLGYLECLVEDNQTITQGILDETINAVRGRASVNMPPVTEVTPAKLREIVRHERRIELAMEGIRYWDIMRWGIAHEVLSQKIWGAPYPGSTQYATTTKEVDPTGNYRWYVGKRAFRNPTDYTWPIPQSEQNINPNLRD
# Legend:
# Test in all cases: glycan array binding signal (z-score within array); higher = stronger binding
# Details in all cases: glycan notation: IUPAC condensed, linker removed
# [1] = target: Fuc(a1-2)Gal(b1-4)GlcNAc(b1-3)Gal(b1-4)GlcNAc(b1-3)Gal(b1-4)GlcNAc
# Outline: (§1)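 The Consortium for Functional Glycomics database supplied 3228 glycan arrays, of which those lacking an available protein sequence were dropped. The binding signal, a within-array Z-score, was averaged across arrays of the same protein sequence and across linkers. Negative scores can be read as non-binding.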
# [2] = target: Fuc(a1-2)Gal(b1-4)GlcNAc(b1-3)GalNAc
# Outline: as §1
# [3] = target: Fuc(a1-2)Gal(b1-4)GlcNAc(b1-3)[Fuc(a1-2)Gal(b1-4)GlcNAc(b1-6)]GalNAc
# Outline: as §1
# [4] = target: Fuc(a1-2)Gal(b1-4)GlcNAc(b1-3)[Fuc(a1-3)[Gal(b1-4)]GlcNAc(b1-6)]Gal(b1-4)Glc
# Outline: as §1
# [5] = target: Fuc(a1-2)Gal(b1-4)GlcNAc(b1-6)GalNAc
# Outline: as §1
# [6] = target: Fuc(a1-2)Gal(b1-4)GlcNAc6S
# Outline: as §1
# [7] = target: Fuc(a1-2)Gal(b1-4)[Fuc(a1-3)]GlcNAc
# Outline: as §1
# [8] = target: Fuc(a1-2)Gal(b1-4)[Fuc(a1-3)]GlcNAc(b1-2)Man(a1-3)[Fuc(a1-2)Gal(b1-4)[Fuc(a1-3)]GlcNAc(b1-2)Man(a1-6)]Man(b1-4)GlcNAc(b1-4)[Fuc(a1-6)]GlcNAc
# Outline: as §1
# [9] = target: Fuc(a1-2)Gal(b1-4)[Fuc(a1-3)]GlcNAc(b1-2)[Fuc(a1-2)Gal(b1-4)[Fuc(a1-3)]GlcNAc(b1-4)]Man(a1-3)[Fuc(a1-2)Gal(b1-4)[Fuc(a1-3)]GlcNAc(b1-2)Man(a1-6)]Man(b1-4)GlcNAc(b1-4)GlcNAc
# Outline: as §1
# [10] = target: Fuc(a1-2)Gal(b1-4)[Fuc(a1-3)]GlcNAc(b1-3)Gal(b1-4)[Fuc(a1-3)]GlcNAc
# Outline: as §1
# [11] = target: Fuc(a1-2)Gal(b1-4)[Fuc(a1-3)]GlcNAc(b1-3)Gal(b1-4)[Fuc(a1-3)]GlcNAc(b1-3)Gal(b1-4)[Fuc(a1-3)]GlcNAc
# Outline: as §1
# [12] = target: Fuc(a1-2)Gal(b1-4)[Fuc(a1-3)]GlcNAc(b1-3)GalNAc
# Outline: as §1
# [13] = target: Fuc(a1-2)Gal(b1-4)[Fuc(a1-3)]GlcNAc(b1-3)[Neu5Ac(a2-6)Gal(b1-4)GlcNAc(b1-6)]Gal(b1-4)Glc
# Outline: as §1
# [14] = target: Fuc(a1-2)Gal3S(b1-4)GlcNAc
# Outline: as §1
# [15] = target: Fuc(a1-2)Gal6S(b1-3)GlcNAc
# Outline: as §1
# [16] = target: Fuc(a1-2)Gal6S(b1-3)GlcNAc6S
# Outline: as §1
# Fuc(a1-2)Gal6S(b1-4)Glc = target: Fuc(a1-2)Gal6S(b1-4)Glc
# Outline: as §1
# [17] = target: Fuc(a1-2)Gal6S(b1-4)Glc6S
# Outline: as §1
# Fuc(a1-2)[Gal(a1-3)]Gal = target: Fuc(a1-2)[Gal(a1-3)]Gal
# Outline: as §1
# [18] = target: Fuc(a1-2)[Gal(a1-3)]Gal(b1-3)GalNAc
# Outline: as §1
# [19] = target: Fuc(a1-2)[Gal(a1-3)]Gal(b1-3)GalNAc(b1-3)Gal(a1-4)Gal(b1-4)Glc
# Outline: as §1
# [20] = target: Fuc(a1-2)[Gal(a1-3)]Gal(b1-3)GlcNAc
# Outline: as §1
# [21] = target: Fuc(a1-2)[Gal(a1-3)]Gal(b1-3)GlcNAc(b1-2)Man(a1-3)[Fuc(a1-2)[Gal(a1-3)]Gal(b1-3)GlcNAc(b1-2)Man(a1-6)]Man(b1-4)GlcNAc(b1-4)GlcNAc
# Outline: as §1
# [22] = target: Fuc(a1-2)[Gal(a1-3)]Gal(b1-3)GlcNAc(b1-2)Man(a1-3)[Fuc(a1-2)[Gal(a1-3)]Gal(b1-3)GlcNAc(b1-2)Man(a1-6)]Man(b1-4)GlcNAc(b1-4)[Fuc(a1-6)]GlcNAc
# Outline: as §1
# [23] = target: Fuc(a1-2)[Gal(a1-3)]Gal(b1-3)GlcNAc(b1-3)GalNAc
# Outline: as §1
# [24] = target: Fuc(a1-2)[Gal(a1-3)]Gal(b1-3)GlcNAc(b1-6)GalNAc
# Outline: as §1
# [25] = target: Fuc(a1-2)[Gal(a1-3)]Gal(b1-4)Glc
# Outline: as §1
# [26] = target: Fuc(a1-2)[Gal(a1-3)]Gal(b1-4)GlcNAc
# Outline: as §1
# [27] = target: Fuc(a1-2)[Gal(a1-3)]Gal(b1-4)GlcNAc(b1-2)Man
# Outline: as §1
# [28] = target: Fuc(a1-2)[Gal(a1-3)]Gal(b1-4)GlcNAc(b1-2)Man(a1-3)[Fuc(a1-2)[Gal(a1-3)]Gal(b1-4)GlcNAc(b1-2)Man(a1-6)]Man(b1-4)GlcNAc(b1-4)GlcNAc
# Outline: as §1
binder,measurement,setting,value
B1,glycan array binding signal (z-score),[1],-0.121
same,glycan array binding signal (z-score),[2],-0.12
same,glycan array binding signal (z-score),[3],-0.124
same,glycan array binding signal (z-score),[4],-0.127
same,glycan array binding signal (z-score),[5],-0.128
same,glycan array binding signal (z-score),[6],-0.116
same,glycan array binding signal (z-score),[7],-0.124
same,glycan array binding signal (z-score),[8],-0.104
same,glycan array binding signal (z-score),[9],-0.106
same,glycan array binding signal (z-score),[10],-0.128
same,glycan array binding signal (z-score),[11],-0.12
same,glycan array binding signal (z-score),[12],-0.088
same,glycan array binding signal (z-score),[13],-0.121
same,glycan array binding signal (z-score),[14],4.47
same,glycan array binding signal (z-score),[15],2.42
same,glycan array binding signal (z-score),[16],6.35
same,glycan array binding signal (z-score),Fuc(a1-2)Gal6S(b1-4)Glc,0.199
same,glycan array binding signal (z-score),[17],0.709
same,glycan array binding signal (z-score),Fuc(a1-2)[Gal(a1-3)]Gal,-0.117
same,glycan array binding signal (z-score),[18],-0.12
same,glycan array binding signal (z-score),[19],-0.127
same,glycan array binding signal (z-score),[20],-0.119
same,glycan array binding signal (z-score),[21],-0.131
same,glycan array binding signal (z-score),[22],-0.102
same,glycan array binding signal (z-score),[23],-0.106
same,glycan array binding signal (z-score),[24],-0.123
same,glycan array binding signal (z-score),[25],-0.124
same,glycan array binding signal (z-score),[26],-0.126
same,glycan array binding signal (z-score),[27],-0.127
same,glycan array binding signal (z-score),[28],-0.111
